Results reported in FireProtDB (doi:10.1021/bi00091a031).
Values joined by “and” are separate entries in the source; they are usually repeats but may differ in a detail not shown here. Equal entries are not always repeated.

Settings: Homo sapiens; pH 8; 25 °C; GdnHCl; CD; Tris 10 mM; reversible: yes

With Insulin wild type (sequence not shown) as the substance, how does the denaturant m value read?
The denaturant m value was 0.86 kcal/mol/M and 0.83 kcal/mol/M.

And the “denaturant midpoint (higher = more stable)” value?
The value was 4.37 M and 4.5 M and 4.67 M.

And the unfolding free energy?
Its unfolding free energy is 3.76 kcal/mol and 3.86 kcal/mol.
